# Experimental data as given in PubChem BioAssay (Tox21).
# Where “and” joins values, the source holds several entries; their conditions need not be identical. Equal values may be shown once. The inconclusive results got no clear call from the source; some entries with a clear call stand among them for comparison. Potencies beside an inconclusive call are fits to weak or partial responses and may not hold up. Calls of active or inactive are those of the source. Calls come from the whole dose curve; as a rule, active = well fitted inhibition curve with a large enough effect in the repeat runs; inconclusive = weak or mixed curves; inactive = no such curve, though single readings can be large or run the other way.
# Target: Cytochrome P450 1A2 (Homo sapiens) (UniProt P05177)
# Test: Cytochrome P450 Family 1 Subfamily A Member 2 (CYP1A2) small molecule antagonists: luciferase reporter qHTS assay (AID 1671199); note: nearly all actives have a fitted effect of over 50% in size
# Settings: P450-Glo CYP1A2 enzyme, luciferin luminescence, 1 h; series mostly up to 115 µM
# Summary of the method: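 P450-Glo CYP1A2, 1536-well qHTS: enzyme/proluciferin substrate + cpd (DMSO), 10 min RT; NADPH regen, 1 h RT; detection reagent, 20 min; luminescence, RLU.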
# Potency is the fitted concentration of half-maximal effect; tags give direction and shape of the fitted curve.
# Chain of UniProt P05177 (P05177 whole entry, looked up): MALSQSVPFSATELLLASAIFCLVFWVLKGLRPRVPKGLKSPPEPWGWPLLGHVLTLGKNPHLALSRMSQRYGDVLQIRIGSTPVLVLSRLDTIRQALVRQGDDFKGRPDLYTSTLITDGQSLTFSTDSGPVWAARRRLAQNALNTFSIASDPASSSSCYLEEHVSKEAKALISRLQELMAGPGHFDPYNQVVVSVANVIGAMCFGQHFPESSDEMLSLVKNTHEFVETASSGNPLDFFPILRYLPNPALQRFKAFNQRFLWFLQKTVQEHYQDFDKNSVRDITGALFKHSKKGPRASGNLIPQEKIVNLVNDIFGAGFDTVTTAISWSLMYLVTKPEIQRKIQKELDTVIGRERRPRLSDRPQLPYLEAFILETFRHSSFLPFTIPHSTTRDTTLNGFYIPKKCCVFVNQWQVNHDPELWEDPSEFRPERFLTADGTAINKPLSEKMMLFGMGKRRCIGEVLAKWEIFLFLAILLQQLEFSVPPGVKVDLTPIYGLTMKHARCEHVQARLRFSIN
row,Compound,Potency
1,C=CCCCCCCCCC(=O)OCCCC,"inconclusive: 79.6 µM [inhibitor, partial curve]"
2,CCCC(=O)OC(=O)CCC,"inconclusive: 64.5 µM [inhibitor, partial curve]"
3,CCCCCC[C@@H](CCC)C(=O)O,inactive
4,OCCC(F)(F)C(F)(F)C(F)(F)C(F)(F)C(F)(F)C(F)(F)F,active: 31.7 µM
5,C=C(C)[C@H]1CC=C(C)C(=O)C1,"inconclusive: 64.4 µM [inhibitor, partial curve, poor fit]"
6,Clc1cc(Cl)c(Cl)cc1Cl,"inconclusive: 40.5 µM [inhibitor, partial curve] and inconclusive: 71 µM [inhibitor, partial curve, poor fit]"
7,COC(=O)C1=C(C)NC(C)=C(C(=O)OC(C)(C)CN(C)CCC(c2ccccc2)c2ccccc2)C1c1cccc([N+](=O)[O-])c1 (configuration not stated),"inconclusive: 30.9 µM [inhibitor, partial curve, poor fit]"
8,CC(=O)OCC(=O)[C@@]1(O)CC[C@H]2[C@@H]3CCC4=CC(=O)CC[C@]4(C)[C@H]3C(=O)C[C@@]21C,inactive
9,CO[C@@]12[C@H](COC(N)=O)C3=C(C(=O)C(C)=C(N)C3=O)N1C[C@@H]1N[C@@H]12,active: 30.9 µM
10,O=C(C(Cl)Cl)N1CCOC12CCCCC2,inactive
11,Cc1cc(-c2ccccc2)nnc1NCCN1CCOCC1,inactive
12,C[C@@H]1O[C@@H](OC[C@H]2O[C@@H](Oc3c(-c4ccc(O)c(O)c4)oc4cc(O)cc(O)c4c3=O)[C@H](O)[C@@H](O)[C@@H]2O)[C@H](O)[C@H](O)[C@H]1O,"inconclusive: 38.9 µM [inhibitor, partial curve, poor fit]"
